Assay results reported in patent US9193768B2, “Peptide for inhibition of binding between angiopoietin-2 and integrin and use thereof” (Samsung Electronics Co., Ltd., priority 2012, dated 2015).

Experiments:
[1] = system: U87MG cells; experiment: Ang2 dependent adhesion of U87MG cells to Ang2-coated wells (CellTiter-Glo luminescence); assay type: cell-based, human
Method: A 96-well plate was treated with 100 μl of a solution obtained by diluting Ang2 (R&D systems; 623-AN-025/CF) in a phosphate buffered saline (PBS) at a concentration of 10 μg/ml and incubated at 4° C. for 16 hours so that the wells were coated with Ang2. Thereafter, the Ang2-coated 96 wells were washed twice with PBS, treated with 200 μl of PBS containing 2% (v/v) bovine serum albumin (BSA) and then incubated at a room temperature for 2 hours for blocking. For a negative control, wells that were blocked without Ang2 coating (i.e., treated with BSA only) were prepared. […]
Then, the plate was washed 4 times with serum-free media that was warmed to 37° C. to remove cells that were not adhered. The adhesion level of cells was quantified by adding 200 μl of CellTiter-Glo reagent (Promega) diluted in IMDM at 1:1 and then, measuring luminescence at EnVision® Multilabel Reader (PerkinElmer) after 10 min.
When Ang2-coated plates were treated with U87MG cells in accordance with the same methods as in Example 1.1, they were co-treated with one of the 41 peptides derived from Ang2 set forth in Table 2 to investigate the inhibition effects of the peptides against the adhesion of U87MG cells (see FIG. 8). […] That is, after the addition of 200 μl of CellTiter-Glo reagent (Promega) diluted in IMDM at 1:1, their luminescence was measured at EnVision® Multilabel Reader (PerkinElmer) after 10 min. […]

[2] = target: T1, integrin (αVβ3) and Ang2 (Homo sapiens, UniProt P05106+P06756); experiment: ELISA: inhibition of FLAG-Ang2 binding to coated integrin by C-body; conditions: C-body 0, 0.8 and 4 μg/ml; FIG. 22
T1 construct: purchased R&D systems
T1 sequence (P06756 31-889 limits assumed): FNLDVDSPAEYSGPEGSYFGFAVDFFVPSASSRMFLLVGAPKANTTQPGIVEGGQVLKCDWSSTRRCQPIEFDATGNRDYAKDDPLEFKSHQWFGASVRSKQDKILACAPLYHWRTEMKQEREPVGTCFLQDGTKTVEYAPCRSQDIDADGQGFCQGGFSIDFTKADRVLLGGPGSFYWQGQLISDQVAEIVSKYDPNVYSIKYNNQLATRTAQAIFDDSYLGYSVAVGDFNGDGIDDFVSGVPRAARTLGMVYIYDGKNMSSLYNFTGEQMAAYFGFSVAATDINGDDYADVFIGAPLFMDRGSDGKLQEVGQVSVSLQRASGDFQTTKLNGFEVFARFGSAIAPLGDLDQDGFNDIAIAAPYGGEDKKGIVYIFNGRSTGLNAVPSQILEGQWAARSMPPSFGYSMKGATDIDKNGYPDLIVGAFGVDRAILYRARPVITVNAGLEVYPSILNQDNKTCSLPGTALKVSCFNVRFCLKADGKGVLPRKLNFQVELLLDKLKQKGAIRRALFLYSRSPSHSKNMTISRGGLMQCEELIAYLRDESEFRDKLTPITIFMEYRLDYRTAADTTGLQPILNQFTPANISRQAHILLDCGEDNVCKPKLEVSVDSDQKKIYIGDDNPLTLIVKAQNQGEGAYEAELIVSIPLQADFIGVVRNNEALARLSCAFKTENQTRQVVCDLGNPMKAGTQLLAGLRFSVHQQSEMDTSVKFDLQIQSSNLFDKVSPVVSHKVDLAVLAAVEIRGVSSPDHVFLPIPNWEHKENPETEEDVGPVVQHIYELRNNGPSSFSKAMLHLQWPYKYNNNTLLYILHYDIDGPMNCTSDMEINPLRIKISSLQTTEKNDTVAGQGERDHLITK
T1 sequence (P06756 891-992 partner limits assumed): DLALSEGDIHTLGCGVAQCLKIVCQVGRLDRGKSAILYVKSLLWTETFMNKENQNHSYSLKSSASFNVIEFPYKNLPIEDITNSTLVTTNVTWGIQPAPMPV
T1 sequence (P05106 27-718 limits assumed): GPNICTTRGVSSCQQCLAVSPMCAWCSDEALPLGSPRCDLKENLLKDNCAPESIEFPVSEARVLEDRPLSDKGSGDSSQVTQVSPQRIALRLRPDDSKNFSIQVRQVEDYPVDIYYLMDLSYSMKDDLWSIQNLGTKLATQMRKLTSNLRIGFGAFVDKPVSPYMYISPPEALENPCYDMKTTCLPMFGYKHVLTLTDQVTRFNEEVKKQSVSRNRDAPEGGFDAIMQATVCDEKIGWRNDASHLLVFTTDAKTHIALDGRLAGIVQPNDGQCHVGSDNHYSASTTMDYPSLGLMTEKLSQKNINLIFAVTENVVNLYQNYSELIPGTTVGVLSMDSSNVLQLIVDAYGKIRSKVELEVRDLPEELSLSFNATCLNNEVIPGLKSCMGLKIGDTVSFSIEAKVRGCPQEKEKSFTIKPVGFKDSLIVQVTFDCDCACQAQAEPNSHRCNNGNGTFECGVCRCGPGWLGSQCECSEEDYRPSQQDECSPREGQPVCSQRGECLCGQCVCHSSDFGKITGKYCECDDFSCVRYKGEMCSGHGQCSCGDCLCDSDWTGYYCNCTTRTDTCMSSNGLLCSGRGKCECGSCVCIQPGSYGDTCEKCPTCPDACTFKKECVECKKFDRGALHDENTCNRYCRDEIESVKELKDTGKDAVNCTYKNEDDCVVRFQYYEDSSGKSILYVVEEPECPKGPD
Method: After an ELISA plate was coated with diluents obtained by diluting 3 kinds of integrin proteins (alpha5beta1 (α5β1; α5: NCBI Accession No. P08648, β1: NCBI Accession No. P05556), alphaVbeta1 (αVβ1; αV: NCBI Accession No. P06756, β1: NCBI Accession No. P05556), and alphaVbeta3 (αVβ3; αV: NCBI Accession No. P06756, β3: NCBI Accession No. P05106); R&D systems)) in PBS at a concentration of 5 μg/ml (18 hours, 4° C.), it was blocked with 1% (v/v) BSA at a room temperature for 2 hours. Thereafter, it was treated with Ang2 protein having FLAG sequences (DYKDDDDK, Sigma) tagged at its N-terminal (FLAG-Ang2, 0.1 ml of Ang2 protein solution diluted in PBS at a concentration of 10 μg/ml), incubated at a room temperature for 2 hours, and washed 5 times with PBS-t (0.1% (v/v) triton X-100 in PBS). Then, it was followed by the addition of anti-FLAG antibody (Sigma) conjugated with horse radish peroxidase (HRP) and washed 5 times with PBS-t. Binding between Ang2 and 3 kinds of the integrins was verified indirectly by measuring the quantity of anti-FLAG antibody remaining in the ELISA plate through color development reaction using TMB (3,3,5,5-tetramethylbenzidine) as a substrate of HRP. As a negative control, one plate which was blocked without Ang2 protein treatment (BSA treatment only) was used. […]

[3] = target: T2, Ang2-Tie2 binding (Homo sapiens, UniProt Q02763); experiment: ELISA: Ang2-Tie2 binding with or without C-body; conditions: C-body 5 μg/ml, FLAG-Ang2 5 μg/ml; FIG. 19
T2 construct: purchased R&D systems
T2 sequence (Q02763 23-745 limits assumed): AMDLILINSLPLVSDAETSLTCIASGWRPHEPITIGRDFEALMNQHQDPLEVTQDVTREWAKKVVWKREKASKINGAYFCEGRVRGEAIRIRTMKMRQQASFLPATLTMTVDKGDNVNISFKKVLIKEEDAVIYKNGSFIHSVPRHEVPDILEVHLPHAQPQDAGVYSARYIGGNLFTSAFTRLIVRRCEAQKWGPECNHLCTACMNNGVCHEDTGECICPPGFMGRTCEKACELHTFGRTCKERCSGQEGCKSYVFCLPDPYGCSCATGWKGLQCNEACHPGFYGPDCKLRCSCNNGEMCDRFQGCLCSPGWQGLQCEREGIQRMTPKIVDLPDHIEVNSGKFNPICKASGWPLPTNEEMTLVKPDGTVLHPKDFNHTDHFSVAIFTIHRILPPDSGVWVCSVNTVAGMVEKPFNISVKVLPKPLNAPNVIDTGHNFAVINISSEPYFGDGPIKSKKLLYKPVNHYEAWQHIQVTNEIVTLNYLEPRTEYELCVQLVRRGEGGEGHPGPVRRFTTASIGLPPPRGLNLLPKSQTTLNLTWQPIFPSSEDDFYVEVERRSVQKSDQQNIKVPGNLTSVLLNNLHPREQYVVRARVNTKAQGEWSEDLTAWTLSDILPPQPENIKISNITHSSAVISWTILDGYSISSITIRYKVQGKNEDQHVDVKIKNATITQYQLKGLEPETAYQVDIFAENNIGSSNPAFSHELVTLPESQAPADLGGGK
Method: As in Example 6, while Tie2-coated ELISA plates were being incubated after the addition of 100 μl of FLAG-Ang2 (5 μg/ml), they were treated or not treated with C-body at a concentration of 5 μg/ml to examine any changes in Ang2-Tie2 binding according to the presence or absence of C-body.

[4] = target: T3, integrin (α5β1) (Homo sapiens, UniProt P05556+P08648); experiment: Flow cytometry: FLAG-Ang2 binding to integrin on the membrane of transfected CHO cells; assay type: cell-based; conditions: C-body 10 μg/ml along with FLAG-Ang2, FIG. 17
T3 construct: myc-His (vector pcDNA3.1(+)/myc-His A) (C); host or cells: CHO cells
T3 sequence (P08648 42-894 limits assumed): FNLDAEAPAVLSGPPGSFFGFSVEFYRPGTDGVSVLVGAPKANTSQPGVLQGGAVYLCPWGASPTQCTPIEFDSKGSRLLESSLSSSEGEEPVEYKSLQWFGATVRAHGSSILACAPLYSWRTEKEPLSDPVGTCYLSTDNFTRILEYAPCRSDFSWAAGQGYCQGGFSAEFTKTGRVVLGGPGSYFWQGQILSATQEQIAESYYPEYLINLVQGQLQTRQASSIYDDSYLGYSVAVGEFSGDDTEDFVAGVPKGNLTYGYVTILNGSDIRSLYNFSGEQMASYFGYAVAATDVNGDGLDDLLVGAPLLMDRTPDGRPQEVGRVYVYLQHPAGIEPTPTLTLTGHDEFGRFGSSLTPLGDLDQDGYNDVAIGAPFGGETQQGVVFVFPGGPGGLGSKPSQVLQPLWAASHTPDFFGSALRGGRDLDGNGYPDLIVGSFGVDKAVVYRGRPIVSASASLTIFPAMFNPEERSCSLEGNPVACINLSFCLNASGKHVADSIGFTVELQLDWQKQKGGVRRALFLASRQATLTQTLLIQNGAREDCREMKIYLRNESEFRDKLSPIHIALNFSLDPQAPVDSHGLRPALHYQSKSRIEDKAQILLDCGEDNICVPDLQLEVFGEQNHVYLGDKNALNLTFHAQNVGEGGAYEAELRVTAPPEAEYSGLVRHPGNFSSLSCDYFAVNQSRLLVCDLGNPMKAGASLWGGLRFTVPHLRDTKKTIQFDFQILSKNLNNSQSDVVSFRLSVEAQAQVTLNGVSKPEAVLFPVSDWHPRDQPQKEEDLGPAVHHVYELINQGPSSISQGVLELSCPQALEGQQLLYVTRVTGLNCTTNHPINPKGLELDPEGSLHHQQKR
T3 sequence (P08648 895-1049 partner limits assumed): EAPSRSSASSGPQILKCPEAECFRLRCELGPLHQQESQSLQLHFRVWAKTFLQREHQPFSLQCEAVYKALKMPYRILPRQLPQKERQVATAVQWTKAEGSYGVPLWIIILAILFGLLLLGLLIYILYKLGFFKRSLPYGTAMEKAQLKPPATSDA
T3 sequence (P05556 21-798): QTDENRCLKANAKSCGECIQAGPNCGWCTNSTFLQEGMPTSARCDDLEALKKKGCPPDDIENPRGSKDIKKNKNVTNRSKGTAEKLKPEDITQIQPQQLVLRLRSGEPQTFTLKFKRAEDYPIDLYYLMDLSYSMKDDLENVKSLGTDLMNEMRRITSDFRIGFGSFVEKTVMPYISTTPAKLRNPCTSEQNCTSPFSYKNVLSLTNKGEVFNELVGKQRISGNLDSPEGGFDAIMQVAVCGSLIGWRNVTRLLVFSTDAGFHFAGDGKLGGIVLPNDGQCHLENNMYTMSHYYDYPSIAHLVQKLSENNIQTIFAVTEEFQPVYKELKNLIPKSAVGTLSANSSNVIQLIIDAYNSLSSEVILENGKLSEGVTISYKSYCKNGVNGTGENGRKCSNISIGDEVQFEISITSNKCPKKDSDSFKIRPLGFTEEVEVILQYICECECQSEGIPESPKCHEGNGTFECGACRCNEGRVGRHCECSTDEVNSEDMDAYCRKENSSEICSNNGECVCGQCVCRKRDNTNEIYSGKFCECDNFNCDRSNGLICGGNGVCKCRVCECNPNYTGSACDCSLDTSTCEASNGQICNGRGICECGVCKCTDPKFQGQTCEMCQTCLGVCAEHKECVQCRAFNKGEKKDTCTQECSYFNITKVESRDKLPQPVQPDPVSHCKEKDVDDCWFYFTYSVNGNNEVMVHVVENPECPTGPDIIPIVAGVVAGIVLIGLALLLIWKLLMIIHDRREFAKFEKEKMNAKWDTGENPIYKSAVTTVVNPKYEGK
From the text: cDNA pairs of each integrin (α5β1, αVβ1, and αVβ3) and cDNA (pTRACER™-CMV2, Invitrogen) encoding green fluorescent protein (GFP) as a transfection marker were transfected into Chinese Hamster Ovary (CHO) cell line (Korea Research Institute of Bioscience and Biotechnology, Biological Resource Center) using lipofectamine 2000 reagent (Invitrogen) pursuant to the manufacturer's recommended experimental procedures. Each cDNA (integrin α5, αV, β1, β3 4 kinds) used for transfection was purchased from Origene, with the corresponding open reading frame amplified using polymerase chain reaction, and cloned into pcDNA3.1(+)/myc-His A (invitrogen).
The transfected cells were cultured under normal cell cultivation conditions (IMDM media containing 10% fetal bovine serum and penicillin/streptomycin at 10%, CO2 incubator at 37° C.) for 24 hours.
Then, the cells were detached according to Example 1.1 above, re-suspended in serum-free media (IMDM) at about 2×10^7 cells/ml, and incubated at 4° C. for 1 hour after 45 μl of the cell solution was mixed with 5 ml of FLAG-Ang2 diluted in PBS at a concentration of 200 μg/ml. After the cells were fixed using 3% (v/v) formaldehyde and washed with IMDM, they were dyed with anti-FLAG antibody (Sigma) conjugated with R-phycoerythrin and then analyzed using flow cytometry. […]

[5] = system: FAK (focal adhesion kinase); experiment: FAK phosphorylation in U87MG cells on coated wells (western blotting); assay type: cell-based, human; conditions: C-body 5 μg/ml
Method: In accordance with Example 2 above, 6 wells were coated with 100 μg/ml of poly-L-lysine, 10 μg/ml of Ang2, or 10 μg/ml of fibronectin, respectively, and 2 ml of a U87MG cell suspension (about 3×10^5 cells/ml) was added to the surfaces blocked with 2% (v/v) BSA to perform a cell adhesion test. When the cells were added, 5 μg/ml of C-body was or was not treated with regard to each coating condition. After the induction of cell adhesion in a CO2 incubator of 37° C. for 2 hours, the adhered cells and non-adhered cells were collected and they subjected to western blotting using an antibody which recognizes only FAK phosphorylated at tyrosine of No. 397 (Life Technologies) or an antibody which recognizes only FAK phosphorylated at serine of No. 910 (Life Technologies) to investigate the phosphorylation level of FAK.

[6] = system: lymphatic endothelial cells (LEC); experiment: Migration of lymphatic endothelial cells induced by Ang2 (xCelligence, CIM-plate 16); assay type: cell-based; conditions: C-body 10 μg/ml with 2 μg/ml Ang2; FIG. 20, FIG. 21 (24 hours)
Method: To each well of the lower chambers of CIM-plate 16 (GE healthcare) was added EBM media (Lonza) to which 2% (v/v) fetal bovine serum (FBS) was added, and 2 μg/ml of Ang2 along with either 10 μg/ml of C-body produced in Example 8, or μg/ml of Fc, a negative control, (human IgG1). The plates were assembled with the upper chambers coated with fibronectin. 40,000 lymphatic endothelial cells (LEC; Lonza) resuspended in serum-free media were added to each well, which was then equipped to xCelligence Realtime cell analyzer (GE Healthcare), and the impedance between the upper chambers and lower chambers was measured and marked for 30 hours to quantify cell migration.
The control set forth in FIG. 20 and FIG. 21 refers to a negative control with no treatment given.

[7] = poly-L-lysine, Ang2 or fibronectin coating, FIG. 18

B1: C-body: peptibody: four-fold Peptide 15/Gly-Gly-Gly-Ser linker repeats fused at N-terminal and C-terminal of human IgG1 Fc fragment, dimer (protein)
chain: EYWLGNEFVSQLTNQGGGSEYWLGNEFVSQLTNQGGGSEYWLGNEFVSQLTNQGGGSEYWLGNEFVSQLTNQGGGS[omitted - human IgG1 Fc]GGGSEYWLGNEFVSQLTNQGGGSEYWLGNEFVSQLTNQGGGSEYWLGNEFVSQLTNQGGGSEYWLGNEFVSQLTNQ
inhibition of U87MG cell adhesion ([1]; C-body 20 μg/ml or 5 μg/ml, compared with no treatment (0 μg/ml), FIG. 16): remarkably inhibited cell adhesion
cell adhesion inhibition effects ([1]; C-body at a low concentration (e.g., 5 μg/ml)): excellent cell adhesion inhibition effects
inhibition of binding between integrin (αVβ3) and Ang2 [2]: inhibited binding between integrin (αVβ3) and Ang2 in a concentration-dependent manner
inhibition effects on Tie2-Ang2 binding [3]: did not exhibit inhibition effects
inhibition of binding between Ang2 and integrin (α5β1) on cell surface [4]: remarkably inhibited binding between Ang2 and integrin
phosphorylation of tyrosine of No. 397 of FAK ([5]; Ang2 coating condition, FIG. 18): highly reduced
inhibition of the binding of fibronectin and integrin ([5]; concluded from FAK Tyr397 phosphorylation under fibronectin coating): does not inhibit
expression levels of overall FAK [5, 7]: little difference
phosphorylation of serine of No. 910 of FAK [5, 7]: little difference
migration of lymphatic endothelial cells [6]: remarkably reduced to the control level
